Measurements from the supplement of paper PMC8728848.
The other results are listed elsewhere or left out.

Key:
Assay in all cases: glycan array binding signal (z-score within array); higher = stronger binding
Details in all cases: glycan notation: IUPAC condensed, linker removed
Gal(a1-3)Gal(b1-4)GlcNAc = biological target: Gal(a1-3)Gal(b1-4)GlcNAc
Method in brief: (§1)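 Glycan array binding is given as a within-array Z-score, which can be read as non-binding when negative. The arrays, 3228 of them, came from the Consortium for Functional Glycomics database and were retained only where the protein sequence was available. Z-scores were averaged across arrays of the same protein sequence at different concentrations or buffers and across linkers.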

[1] = biological target: Gal(a1-3)Gal(b1-4)GlcNAc(b1-2)Man
Method in brief: as §1

[2] = biological target: Gal(a1-3)Gal(b1-4)GlcNAc(b1-2)Man(a1-3)[Gal(a1-3)Gal(b1-4)GlcNAc(b1-2)Man(a1-6)]Man(b1-4)GlcNAc(b1-4)GlcNAc
Method in brief: as §1

[3] = biological target: Gal(a1-3)Gal(b1-4)GlcNAc(b1-3)GalNAc
Method in brief: as §1

[4] = biological target: Gal(a1-3)Gal(b1-4)GlcNAc(b1-6)GalNAc
Method in brief: as §1

[5] = biological target: Gal(a1-3)Gal(b1-4)[Fuc(a1-3)]GlcNAc
Method in brief: as §1

[6] = biological target: Gal(a1-3)Gal(b1-4)[Fuc(a1-3)]GlcNAc(b1-2)Man(a1-3)[Gal(a1-3)Gal(b1-4)[Fuc(a1-3)]GlcNAc(b1-2)Man(a1-6)]Man(b1-4)GlcNAc(b1-4)GlcNAc
Method in brief: as §1

Gal(a1-3)GalNAc = biological target: Gal(a1-3)GalNAc
Method in brief: as §1

[7] = biological target: Gal(a1-3)[Gal(a1-4)]Gal(b1-4)GlcNAc
Method in brief: as §1

[8] = biological target: Gal(a1-4)Gal(b1-3)GlcNAc(b1-2)Man(a1-3)[Gal(a1-4)Gal(b1-3)GlcNAc(b1-2)Man(a1-6)]Man(b1-4)GlcNAc(b1-4)GlcNAc
Method in brief: as §1

Gal(a1-4)Gal(b1-4)Glc = biological target: Gal(a1-4)Gal(b1-4)Glc
Method in brief: as §1

Gal(a1-4)Gal(b1-4)GlcNAc = biological target: Gal(a1-4)Gal(b1-4)GlcNAc
Method in brief: as §1

[9] = biological target: Gal(a1-4)Gal(b1-4)GlcNAc(b1-2)Man(a1-3)[Gal(a1-4)Gal(b1-4)GlcNAc(b1-2)Man(a1-6)]Man(b1-4)GlcNAc(b1-4)GlcNAc
Method in brief: as §1

[10] = biological target: Gal(a1-4)Gal(b1-4)GlcNAc(b1-3)Gal(b1-4)Glc
Method in brief: as §1

Gal(a1-4)GlcNAc = biological target: Gal(a1-4)GlcNAc
Method in brief: as §1

Gal(a1-6)Glc = biological target: Gal(a1-6)Glc
Method in brief: as §1

Gal(b1-2)Gal = biological target: Gal(b1-2)Gal
Method in brief: as §1

Gal(b1-3)Gal = biological target: Gal(b1-3)Gal
Method in brief: as §1

Gal(b1-3)Gal(b1-4)GlcNAc = biological target: Gal(b1-3)Gal(b1-4)GlcNAc
Method in brief: as §1

Gal(b1-3)GalNAc = biological target: Gal(b1-3)GalNAc
Method in brief: as §1

[11] = biological target: Gal(b1-3)GalNAc(a1-3)[Fuc(a1-2)]Gal(b1-4)Glc
Method in brief: as §1

[12] = biological target: Gal(b1-3)GalNAc(a1-3)[Fuc(a1-2)]Gal(b1-4)GlcNAc
Method in brief: as §1

Gal(b1-3)GalNAc(b1-3)Gal = biological target: Gal(b1-3)GalNAc(b1-3)Gal
Method in brief: as §1

[13] = biological target: Gal(b1-3)GalNAc(b1-3)Gal(a1-4)Gal(b1-4)Glc
Method in brief: as §1

[14] = biological target: Gal(b1-3)GalNAc(b1-4)Gal(b1-4)Glc
Method in brief: as §1

[15] = biological target: Gal(b1-3)GalNAc(b1-4)[Neu5Ac(a2-3)]Gal(b1-4)Glc
Method in brief: as §1

Gal(b1-3)GlcNAc = biological target: Gal(b1-3)GlcNAc
Method in brief: as §1

[16] = biological target: Gal(b1-3)GlcNAc(a1-3)Gal(b1-4)GlcNAc
Method in brief: as §1

[17] = biological target: Gal(b1-3)GlcNAc(a1-6)Gal(b1-4)GlcNAc
Method in brief: as §1

Gal(b1-3)GlcNAc(b1-2)Man = biological target: Gal(b1-3)GlcNAc(b1-2)Man
Method in brief: as §1

[18] = biological target: Gal(b1-3)GlcNAc(b1-2)Man(a1-3)[Gal(b1-3)GlcNAc(b1-2)Man(a1-6)]Man(b1-4)GlcNAc(b1-4)GlcNAc
Method in brief: as §1

[19] = biological target: Gal(b1-3)GlcNAc(b1-2)Man(a1-3)[Gal(b1-3)GlcNAc(b1-2)Man(a1-6)]Man(b1-4)GlcNAc(b1-4)[Fuc(a1-6)]GlcNAc
Method in brief: as §1

[20] = biological target: Gal(b1-3)GlcNAc(b1-2)Man(a1-3)[GlcNAc(b1-4)][Gal(b1-3)GlcNAc(b1-2)Man(a1-6)]Man(b1-4)GlcNAc(b1-4)GlcNAc
Method in brief: as §1

[21] = biological target: Gal(b1-3)GlcNAc(b1-2)[Gal(b1-3)GlcNAc(b1-6)]Man(a1-6)[Gal(b1-3)GlcNAc(b1-2)Man(a1-3)]Man(b1-4)GlcNAc(b1-4)GlcNAc
Method in brief: as §1

[22] = biological target: Gal(b1-3)GlcNAc(b1-3)Gal(b1-3)GlcNAc
Method in brief: as §1

[23] = biological target: Gal(b1-3)GlcNAc(b1-3)Gal(b1-4)Glc
Method in brief: as §1

[24] = biological target: Gal(b1-3)GlcNAc(b1-3)Gal(b1-4)GlcNAc
Method in brief: as §1

[25] = biological target: Gal(b1-3)GlcNAc(b1-3)Gal(b1-4)GlcNAc(b1-2)Man(a1-3)[Gal(b1-3)GlcNAc(b1-3)Gal(b1-4)GlcNAc(b1-2)Man(a1-6)]Man(b1-4)GlcNAc(b1-4)GlcNAc
Method in brief: as §1

[26] = biological target: Gal(b1-3)GlcNAc(b1-3)Gal(b1-4)GlcNAc(b1-2)[Gal(b1-3)GlcNAc(b1-3)Gal(b1-4)GlcNAc(b1-6)]Man(a1-6)[Gal(b1-3)GlcNAc(b1-3)Gal(b1-4)GlcNAc(b1-2)Man(a1-3)]Man(b1-4)GlcNAc(b1-4)[Fuc(a1-6)]GlcNAc
Method in brief: as §1

[27] = biological target: Gal(b1-3)GlcNAc(b1-3)Gal(b1-4)GlcNAc(b1-3)Gal(b1-4)GlcNAc(b1-2)[Gal(b1-3)GlcNAc(b1-3)Gal(b1-4)GlcNAc(b1-3)Gal(b1-4)GlcNAc(b1-6)]Man(a1-6)[Gal(b1-3)GlcNAc(b1-3)Gal(b1-4)GlcNAc(b1-3)Gal(b1-4)GlcNAc(b1-2)Man(a1-3)]Man(b1-4)GlcNAc(b1-4)[Fuc(a1-6)]GlcNAc
Method in brief: as §1

[28] = biological target: Gal(b1-3)GlcNAc(b1-3)Gal(b1-4)GlcNAc(b1-6)[Gal(b1-3)GlcNAc(b1-3)]Gal(b1-4)Glc
Method in brief: as §1

[29] = biological target: Gal(b1-3)GlcNAc(b1-3)Gal(b1-4)[Fuc(a1-3)]GlcNAc
Method in brief: as §1

[30] = biological target: Gal(b1-3)GlcNAc(b1-3)Gal(b1-4)[Fuc(a1-3)]GlcNAc(b1-6)[Gal(b1-3)GlcNAc(b1-3)]Gal(b1-4)Glc
Method in brief: as §1

[31] = biological target: Gal(b1-3)GlcNAc(b1-3)GalNAc
Method in brief: as §1

[32] = biological target: Gal(b1-3)GlcNAc(b1-6)Gal(b1-4)GlcNAc
Method in brief: as §1

B1: Gal 3C (Homo sapiens), P17931 (protein)
chain: YGAPAGPLIVPYNLPLPGGVVPRMLITILGTVKPNANRIALDFQRGNDVAFHFNPRFNENNRRVIVCNTKLDNNWGREERQSVFPFESGKPFKIQVLVEPDHFKVAVNDAHLLQYNHRVKKLNEISKLGISGDIDLTSASYTMI
Gal(a1-3)Gal(b1-4)GlcNAc
  glycan array binding signal (z-score): -0.312
[1]
  glycan array binding signal (z-score): -0.29
[2]
  glycan array binding signal (z-score): 0.738
[3]
  glycan array binding signal (z-score): -0.309
[4]
  glycan array binding signal (z-score): -0.232
[5]
  glycan array binding signal (z-score): -0.259
[6]
  glycan array binding signal (z-score): -0.257
Gal(a1-3)GalNAc
  glycan array binding signal (z-score): -0.174
[7]
  glycan array binding signal (z-score): -0.251
[8]
  glycan array binding signal (z-score): -0.287
Gal(a1-4)Gal(b1-4)Glc
  glycan array binding signal (z-score): -0.203
Gal(a1-4)Gal(b1-4)GlcNAc
  glycan array binding signal (z-score): -0.274
[9]
  glycan array binding signal (z-score): -0.173
[10]
  glycan array binding signal (z-score): -0.309
Gal(a1-4)GlcNAc
  glycan array binding signal (z-score): -0.295
Gal(a1-6)Glc
  glycan array binding signal (z-score): -0.222
Gal(b1-2)Gal
  glycan array binding signal (z-score): -0.228
Gal(b1-3)Gal
  glycan array binding signal (z-score): -0.27
Gal(b1-3)Gal(b1-4)GlcNAc
  glycan array binding signal (z-score): -0.351
Gal(b1-3)GalNAc
  glycan array binding signal (z-score): -0.277
[11]
  glycan array binding signal (z-score): -0.26
[12]
  glycan array binding signal (z-score): 0.638
Gal(b1-3)GalNAc(b1-3)Gal
  glycan array binding signal (z-score): -0.282
[13]
  glycan array binding signal (z-score): -0.237
[14]
  glycan array binding signal (z-score): -0.285
[15]
  glycan array binding signal (z-score): -0.291
Gal(b1-3)GlcNAc
  glycan array binding signal (z-score): -0.332
[16]
  glycan array binding signal (z-score): -0.346
[17]
  glycan array binding signal (z-score): -0.269
Gal(b1-3)GlcNAc(b1-2)Man
  glycan array binding signal (z-score): -0.143
[18]
  glycan array binding signal (z-score): -0.291
[19]
  glycan array binding signal (z-score): -0.259
[20]
  glycan array binding signal (z-score): -0.175
[21]
  glycan array binding signal (z-score): -0.204
[22]
  glycan array binding signal (z-score): -0.068
[23]
  glycan array binding signal (z-score): -0.322
[24]
  glycan array binding signal (z-score): -0.222
[25]
  glycan array binding signal (z-score): 1.31
[26]
  glycan array binding signal (z-score): 0.271
[27]
  glycan array binding signal (z-score): 1.95
[28]
  glycan array binding signal (z-score): -0.144
[29]
  glycan array binding signal (z-score): -0.244
[30]
  glycan array binding signal (z-score): -0.349
[31]
  glycan array binding signal (z-score): -0.251
[32]
  glycan array binding signal (z-score): -0.255
